Source: the supplement of paper PMC10369915
The other results are listed elsewhere or left out. Cut-off read from the data, not from the text of the source: active = 3.2 or more and inactive = the rest. The signal is at background level for most entries.

molecular target: SHP2 C-SH2 domain E139D; assay: enrichment score (SH2-bound / input frequency) (ratio); bacterial display of known human phosphotyrosine sites (pTyr-Var adds point mutants) read by sequencing; higher = stronger binding; tyrosines were phosphorylated by kinases first; conditions: peptide library: pTyr-Var
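Note: displayed peptides selected on beads carrying the immobilized SH2 domain, with library peptides lacking any tyrosine serving as negative controls.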

Enrichment score, inactive:
SYDLDYDSVQP [MYC_Y16_N11S] 0.567, KDQGTYEDYVE [MYL6_Y86] 0.509, ADKSAYLMGPN [MYH7_Y386_L390P] 0.818, IGNGFYFRVFS [MYBPC3_Y1136_YF] 0.76, PTDGVYVMPTV [MYO7A_Y1668_S1666G] 0.665, SKEPYYVHCIK [MYO1D_Y586_R588H] 0.73, ASIVDYNIIGW [MYH7_Y588_G584S] 0.814, ITVCDYTNPCT [MYD88_Y276] 2.09, TNDRLYLRSLE [MTM1_Y71_Y68D] 0.914, EWKQKYEESQS [MYH6_Y1462] 0.827, VHSGTYQVTVR [MYBPC3_Y1043] 0.844, YFVVEYRDQKP [MUC17_Y4332] 1.85, ACRSLYGGFVE [MVD_Y164] 0.88, MPPHICAITDT [MYH9_Y151_Y151C] 1.36, KYVKMYDNHQL [MYO9A_Y203] 0.889, KFFRVYQGQQP [MUTYH_Y494_V490F] 0.659, ITVCDYTNPCP [MYD88_Y276_T281P] 1.17, TVLEHYRRTHC [MYBPC3_Y1119] 0.785, FPPISYLNAIS [MVD_Y276] 1.19

molecular target: SHP2 C-SH2 domain wild-type; assay: as above; conditions: peptide library: pTyr-Var

Enrichment score, inactive:
SYDLDYDSVQP [MYC_Y16_N11S] 0.598, KDQGTYEDYVE [MYL6_Y86] 0.46, ADKSAYLMGPN [MYH7_Y386_L390P] 0.659, IGNGFYFRVFS [MYBPC3_Y1136_YF] 0.859, PTDGVYVMPTV [MYO7A_Y1668_S1666G] 0.708, SKEPYYVHCIK [MYO1D_Y586_R588H] 0.903, ASIVDYNIIGW [MYH7_Y588_G584S] 0.721, ITVCDYTNPCT [MYD88_Y276] 2.03, TNDRLYLRSLE [MTM1_Y71_Y68D] 0.63, EWKQKYEESQS [MYH6_Y1462] 0.826, VHSGTYQVTVR [MYBPC3_Y1043] 0.662, YFVVEYRDQKP [MUC17_Y4332] 2.99, ACRSLYGGFVE [MVD_Y164] 0.707, MPPHICAITDT [MYH9_Y151_Y151C] 1.35, KYVKMYDNHQL [MYO9A_Y203] 0.773, KFFRVYQGQQP [MUTYH_Y494_V490F] 0.462, ITVCDYTNPCP [MYD88_Y276_T281P] 0.945, TVLEHYRRTHC [MYBPC3_Y1119] 0.705, FPPISYLNAIS [MVD_Y276] 0.87

molecular target: SHP2 N-SH2 domain L43F; assay: as above; conditions: peptide library: pTyr-Var

Enrichment score, inactive:
SYDLDYDSVQP [MYC_Y16_N11S] 0.602, KDQGTYEDYVE [MYL6_Y86] 0.376, ADKSAYLMGPN [MYH7_Y386_L390P] 0.638, IGNGFYFRVFS [MYBPC3_Y1136_YF] 0.659, PTDGVYVMPTV [MYO7A_Y1668_S1666G] 0.58, SKEPYYVHCIK [MYO1D_Y586_R588H] 0.6, ASIVDYNIIGW [MYH7_Y588_G584S] 0.718, ITVCDYTNPCT [MYD88_Y276] 2.47, TNDRLYLRSLE [MTM1_Y71_Y68D] 0.765, EWKQKYEESQS [MYH6_Y1462] 0.75, VHSGTYQVTVR [MYBPC3_Y1043] 0.833, YFVVEYRDQKP [MUC17_Y4332] 1.8, ACRSLYGGFVE [MVD_Y164] 0.566, MPPHICAITDT [MYH9_Y151_Y151C] 1.12, KYVKMYDNHQL [MYO9A_Y203] 0.912, KFFRVYQGQQP [MUTYH_Y494_V490F] 0.41, ITVCDYTNPCP [MYD88_Y276_T281P] 1.27, TVLEHYRRTHC [MYBPC3_Y1119] 0.773, FPPISYLNAIS [MVD_Y276] 1.29

molecular target: SHP2 N-SH2 domain T42A; assay: as above; conditions: peptide library: pTyr-Var

Enrichment score, inactive:
SYDLDYDSVQP [MYC_Y16_N11S] 0.605, KDQGTYEDYVE [MYL6_Y86] 0.476, ADKSAYLMGPN [MYH7_Y386_L390P] 0.522, IGNGFYFRVFS [MYBPC3_Y1136_YF] 0.596, PTDGVYVMPTV [MYO7A_Y1668_S1666G] 0.388, SKEPYYVHCIK [MYO1D_Y586_R588H] 0.76, ASIVDYNIIGW [MYH7_Y588_G584S] 0.999, ITVCDYTNPCT [MYD88_Y276] 1.7, TNDRLYLRSLE [MTM1_Y71_Y68D] 0.626, EWKQKYEESQS [MYH6_Y1462] 0.852, VHSGTYQVTVR [MYBPC3_Y1043] 0.7, YFVVEYRDQKP [MUC17_Y4332] 1.98, ACRSLYGGFVE [MVD_Y164] 0.63, MPPHICAITDT [MYH9_Y151_Y151C] 1.16, KYVKMYDNHQL [MYO9A_Y203] 0.833, KFFRVYQGQQP [MUTYH_Y494_V490F] 0.584, ITVCDYTNPCP [MYD88_Y276_T281P] 0.754, TVLEHYRRTHC [MYBPC3_Y1119] 0.676, FPPISYLNAIS [MVD_Y276] 1.6

molecular target: SHP2 N-SH2 domain T52S; assay: as above; conditions: peptide library: pTyr-Var

Enrichment score, inactive:
SYDLDYDSVQP [MYC_Y16_N11S] 0.595, KDQGTYEDYVE [MYL6_Y86] 0.735, ADKSAYLMGPN [MYH7_Y386_L390P] 0.579, IGNGFYFRVFS [MYBPC3_Y1136_YF] 0.644, PTDGVYVMPTV [MYO7A_Y1668_S1666G] 0.532, SKEPYYVHCIK [MYO1D_Y586_R588H] 0.608, ASIVDYNIIGW [MYH7_Y588_G584S] 0.675, ITVCDYTNPCT [MYD88_Y276] 2.64, TNDRLYLRSLE [MTM1_Y71_Y68D] 0.729, EWKQKYEESQS [MYH6_Y1462] 0.947, VHSGTYQVTVR [MYBPC3_Y1043] 0.845, YFVVEYRDQKP [MUC17_Y4332] 1.75, ACRSLYGGFVE [MVD_Y164] 0.711, MPPHICAITDT [MYH9_Y151_Y151C] 1.11, KYVKMYDNHQL [MYO9A_Y203] 2.3, KFFRVYQGQQP [MUTYH_Y494_V490F] 0.59, ITVCDYTNPCP [MYD88_Y276_T281P] 1.22, TVLEHYRRTHC [MYBPC3_Y1119] 0.746, FPPISYLNAIS [MVD_Y276] 1.19

molecular target: SHP2 N-SH2 domain wild-type; assay: as above; conditions: peptide library: pTyr-Var

Enrichment score, inactive:
SYDLDYDSVQP [MYC_Y16_N11S] 0.78, KDQGTYEDYVE [MYL6_Y86] 0.6, ADKSAYLMGPN [MYH7_Y386_L390P] 0.603, IGNGFYFRVFS [MYBPC3_Y1136_YF] 0.907, PTDGVYVMPTV [MYO7A_Y1668_S1666G] 0.764, SKEPYYVHCIK [MYO1D_Y586_R588H] 0.749, ASIVDYNIIGW [MYH7_Y588_G584S] 0.815, ITVCDYTNPCT [MYD88_Y276] 1.79, TNDRLYLRSLE [MTM1_Y71_Y68D] 0.911, EWKQKYEESQS [MYH6_Y1462] 0.983, VHSGTYQVTVR [MYBPC3_Y1043] 0.705, YFVVEYRDQKP [MUC17_Y4332] 1.83, ACRSLYGGFVE [MVD_Y164] 0.68, MPPHICAITDT [MYH9_Y151_Y151C] 2.1, KYVKMYDNHQL [MYO9A_Y203] 0.94, KFFRVYQGQQP [MUTYH_Y494_V490F] 0.363, ITVCDYTNPCP [MYD88_Y276_T281P] 1.02, TVLEHYRRTHC [MYBPC3_Y1119] 0.668, FPPISYLNAIS [MVD_Y276] 1.12
